PubChem BioAssay AID504832 (National Center for Advancing Translational Sciences (NCATS), 2011)
The campaign covered roughly 310,000 compounds. About 18,000 (5.8%) were called active. Inconclusive means that the source gave no clear call. Such entries were picked first, then a sample of the others. Calls come from the whole dose curve; as a rule, active = well fitted inhibition curve with a large enough effect; inconclusive = small, poorly fitted or top-dose-only effect, or another doubt; inactive = no such curve, though single readings can be large or run the other way. Potencies of inconclusive entries are left out as doubtful fits.

Assay: Primary qHTS for delayed death inhibitors of the malarial parasite plastid, 48 hour incubation
Conditions: P. falciparum luciferase growth in erythrocytes; series mostly up to 28.7 µM
In short: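 Compounds are pin-transferred into medium, infected erythrocytes (2% hematocrit, 0.1% parasitemia final) are added, and plates sit one parasite generation at 37 C in 5% CO2. Detection reagent is then added and luminescence measured.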
Potency is the fitted concentration of half-maximal effect; tags give direction and shape of the fitted curve.

SMILES	Potency
CC1CC(NC(=O)/C(C#N)=C/c2ccc[nH]2)CC(C)(C)C1 (centres undefined)	inconclusive [inhibitor, partial curve, poor fit]
CN(C(=O)CSc1nc2[nH]ncc2c(=O)[nH]1)c1ccccc1	inactive
Cc1ccccc1N1CCN(C(=S)c2ccc(-c3cccc([N+](=O)[O-])c3)o2)CC1	active: 10.4 µM
Oc1ccccc1CN1CCN(C(c2ccccc2)c2ccccc2)CC1	inconclusive [inhibitor, full curve, poor fit]
CC(=O)c1ccccc1NC(=O)c1cc(S(=O)(=O)N2CCOCC2)ccc1N1CCCC1	inconclusive [inhibitor, single point]
Cc1nc(-c2ccccc2)nc2sc(C(=O)c3ccc(F)cc3)c(N)c12	inactive
Cc1ccc(/C=C/C(=O)NCCCn2ccnc2)cc1	inconclusive [inhibitor, partial curve, poor fit]
CC(=O)COc1ccc2c3c(c(=O)oc2c1C)CCCCC3	inactive
CN(C(=O)Nc1ccc(Cl)cc1Cl)[C@H]1c2cc(Br)ccc2OC[C@H]1CO	active: 8.28 µM
O=C(CCc1nc2ccccc2[nH]1)Nc1ccccc1F	inactive
CCOP(=O)(OCC)C(NC(=O)Nc1ccc(Cl)c(Cl)c1)c1ccccc1 (centres undefined)	inactive
COc1ccccc1CNC(=O)C1CCC(CNS(=O)(=O)c2cccc3cccnc23)CC1 (centres undefined)	inconclusive [inhibitor, single point]
Cc1cccc(Oc2coc3cc(O)ccc3c2=O)c1	inactive
N#CC1=C(N)Oc2c(ccc3cccnc23)C1c1ccccc1 (centres undefined)	active: 13.1 µM
O=C(NCCc1ccccc1)C1CCN(C2CCN(C(=O)CC3=CCCCC3)CC2)CC1	inconclusive [inhibitor, partial curve, poor fit]
Cc1ccc(C(=O)OC(C)C(=O)NC2CCCCC2)cc1S(=O)(=O)N1CCCCC1 (centres undefined)	active: 7.38 µM
CC(C)(C)c1ccc(OCCC(=O)OCC(=O)NC(=O)NC2CCCC2)cc1	inconclusive [inhibitor, single point]
Cc1cc(C(=O)N/N=C/c2cc(Br)cc(Br)c2OC(=O)c2ccccc2)n[nH]1	inconclusive [inhibitor, single point]
CC1C(=O)N2CCCc3cc(NC(=O)C(=O)NCCc4ccccc4)cc1c32 (centres undefined)	inconclusive [inhibitor, single point]
Nc1nonc1-n1nnc(C(=O)N/N=C/c2ccc(F)cc2)c1-c1ccc2c(c1)OCO2	active: 0.117 µM
Cc1ccc(C2C(C(=O)c3cccs3)=C(O)C(=O)N2c2ccc(S(N)(=O)=O)cc2)cc1 (centres undefined)	inactive
COc1ccc(Nc2nc3ccc(C)cc3n3cnnc23)cc1Cl	inconclusive [inhibitor, single point]

SMILES	Potency
Clc1ccc(C2Nc3cccc4cccc(c34)N2)cc1Cl	inconclusive [inhibitor, full curve, poor fit]
CCOC(=O)C1CCCN(C(=O)C(CCSC)NC(=O)COc2ccccc2)C1 (centres undefined)	inconclusive [inhibitor, single point]
COCCn1c(=NC(=O)c2ccc(S(=O)(=O)N3CCCc4ccccc43)cc2)sc2cc(S(C)(=O)=O)ccc21	active: 3.29 µM
CC(=O)Nc1nc(C)c(Oc2ccc(C)cc2)c(=O)[nH]1	inconclusive [inhibitor, full curve, poor fit]
CCC(=NCCc1c(C)[nH]c2ccc(OC(F)(F)F)cc12)C1=C(O)CC(c2ccccc2)CC1=O (centres undefined)	inconclusive [inhibitor, partial curve]
CC(=O)Nc1ccc(-c2csc(Nc3cc(C)ccn3)n2)cc1	inactive
NC(=O)c1cn(C2OC(CO)C(O)C2O)c2ncnc(N)c12 (centres undefined)	active: 0.104 µM
CCc1cccc(NC(=O)C2CCCN(c3ncnc4c3nc3n4CCCCC3)C2)c1 (centres undefined)	inconclusive [inhibitor, single point]
CNC(=O)[C@H](Cc1c[nH]c2ccccc12)NC(=O)[C@@H](CC(=O)NO)CC(C)C	active: 3.79 µM
C#CCNc1c2c(nc3ncnn13)CC(C)CC2 (centres undefined)	inactive
CC(C)C1=CC2=CC[C@@H]3[C@](C)(CCC[C@@]3(C)C(=O)O)[C@H]2CC1	inactive
CC(C)c1ccc(/C=C2\SC(=O)N(CC(=O)NC3C=CS(=O)(=O)C3)C2=O)cc1 (centres undefined)	inconclusive [inhibitor, single point]
CCc1ccc(N2C(=O)NC(=O)C(CCc3ccncc3)(CCc3ccncc3)C2=O)cc1	inconclusive [inhibitor, partial curve, poor fit]
O=C(O)c1ccccc1/C=N/Nc1ccc(S(=O)(=O)N2CCOCC2)cc1[N+](=O)[O-]	inconclusive [inhibitor, single point]
CC(=O)c1sc(NC(=O)c2ccccc2)nc1-c1ccccc1	inactive
CC1=NN(Cc2ccccc2)C(=O)C1C(c1ccc(Cl)cc1)C(C#N)C#N (centres undefined)	inconclusive [inhibitor, full curve, poor fit]
C/C(=N\NC(=O)C1CC1(C)c1ccccc1)c1ccco1 (centres undefined)	inconclusive [inhibitor, partial curve, poor fit]
CCN(CC)S(=O)(=O)c1ccc(N2CCCC2)c(NC(=O)Cc2cc(OC)c(OC)c(OC)c2)c1	active: 7.38 µM
S=C(NCCc1ccccc1)N1CCN(C2CCCCC2)CC1	inconclusive [inhibitor, single point]
Oc1c(Br)cc(Br)cc1C=NCc1ccc(F)cc1	inconclusive [inhibitor, single point]
COc1ccc(C(=O)NCCc2ccccc2F)cc1OC1CCN(C(C)=O)CC1	inconclusive [inhibitor, partial curve, poor fit]
O=C(N1CCOCC1)n1nnc2ccccc21	inconclusive [inhibitor, single point]
